Measurements as given in the antibiotic and cytotoxicity screens of Wong et al. (2023).
This is one part of the list.

Each compound was assayed on HSkMC (human skeletal muscle cells) (assay: cytotoxicity call (relative viability < 0.9)). Conditions: 10 µM.

With `C[C@H](CO)N1C[C@H](C)[C@@H](CN(C)S(C)(=O)=O)OCCCC[C@H](C)Oc2ccc(NS(=O)(=O)c3cn(C)cn3)cc2C1=O` as the compound, how does the cytotoxicity call read?
The cytotoxicity call was “inactive”.

`COc1ccc(CN(C)C[C@@H]2Oc3c(NC(=O)c4cc(C)nn4C)cccc3C(=O)N([C@H](C)CO)C[C@H]2C)cc1` was tested. Which cytotoxicity call did it give?
The cytotoxicity call was “inactive”.

`Cl.c1ccc(CC2=NCCN2)cc1` was tested. Which cytotoxicity call did it give?
Its cytotoxicity call is “inactive”.

With `Cc1ccc(S(=O)(=O)N[C@@H]2CC[C@@H](CC(=O)N3CCC(Cc4ccccc4)CC3)O[C@H]2CO)cc1` as the compound, how does the cytotoxicity call read?
The cytotoxicity call was “inactive”.

How did the cytotoxicity call turn out when `C[C@@H]1CN([C@H](C)CO)C(=O)c2cc(N(C)C)ccc2O[C@@H]1CN(C)S(C)(=O)=O` was run?
The cytotoxicity call was “inactive”.

With `CC(C)(C)c1cc(CCC(=O)OCC(COC(=O)CCc2cc(C(C)(C)C)c(O)c(C(C)(C)C)c2)(COC(=O)CCc2cc(C(C)(C)C)c(O)c(C(C)(C)C)c2)COC(=O)CCc2cc(C(C)(C)C)c(O)c(C(C)(C)C)c2)cc(C(C)(C)C)c1O` as the compound, how does the cytotoxicity call read?
The cytotoxicity call was “inactive”.

Which cytotoxicity call does the source give for `CC(C)NC(=O)Nc1cccc2c1O[C@@H](CN(C)Cc1ccc(Oc3ccccc3)cc1)[C@@H](C)CN([C@H](C)CO)C2=O` here?
Its cytotoxicity call is “inactive”.

`Cc1cc(C)n2nc(CCCO)nc2n1` was tested. Which cytotoxicity call did it give?
Its cytotoxicity call is “inactive”.

With `COc1ccc(S(=O)(=O)N(C)C[C@@H]2OCCCC[C@@H](C)Oc3ccc(NS(=O)(=O)c4ccc(Cl)cc4)cc3C(=O)N([C@@H](C)CO)C[C@H]2C)cc1` as the compound, how does the cytotoxicity call read?
Its cytotoxicity call is “inactive”.

How did the cytotoxicity call turn out when `COc1ccc(S(=O)(=O)N(C)C[C@@H]2Oc3ncc(-c4ccccc4)cc3C(=O)N([C@H](C)CO)C[C@@H]2C)cc1` was run?
Its cytotoxicity call is “inactive”.

For `C[C@H]1CN([C@@H](C)CO)C(=O)c2cccc(NC(=O)c3cnccn3)c2O[C@@H]1CN(C)C(=O)Nc1ccc2c(c1)OCO2`, which cytotoxicity call is on record?
The cytotoxicity call was “inactive”.

With `C[C@@H]1CN([C@H](C)CO)C(=O)c2cccc(NC(=O)C3CCOCC3)c2O[C@H]1CN(C)Cc1ccc(-c2ccccc2)cc1` as the compound, how does the cytotoxicity call read?
The cytotoxicity call was “inactive”.

`C[C@@H]1CCCCO[C@H](CN(C)Cc2ccc(C(=O)Nc3ccccc3N)cc2)[C@@H](C)CN([C@H](C)CO)C(=O)c2cc(NC(=O)c3ccccc3)ccc2O1` was tested. Which cytotoxicity call did it give?
Its cytotoxicity call is “inactive”.

With `C[C@H](CO)N1C[C@H](C)[C@@H](CN(C)C(=O)CN(C)C)Oc2ncc(-c3ccc(C(=O)N(C)C)cc3)cc2C1=O` as the compound, how does the cytotoxicity call read?
The cytotoxicity call was “inactive”.

`S=c1ccss1` was tested. Which cytotoxicity call did it give?
Its cytotoxicity call is “inactive”.

Which cytotoxicity call does the source give for `Cc1noc(C)c1NC(=O)N(C)C[C@H]1OCCCC[C@H](C)Oc2ccc(NC(=O)C3CCCCC3)cc2C(=O)N([C@@H](C)CO)C[C@H]1C` here?
Its cytotoxicity call is “inactive”.

For `COc1cc([C@@H]2c3cc4c(cc3[C@@H](O[C@@H]3O[C@@H]5CO[C@@H](C)O[C@H]5[C@H](O)[C@H]3O)[C@H]3COC(=O)[C@H]23)OCO4)cc(OC)c1O`, which cytotoxicity call is on record?
Its cytotoxicity call is “active”.

For `C[C@@H]1CN([C@@H](C)CO)C(=O)Cc2cc(NC(=O)CCC(F)(F)F)ccc2O[C@@H]1CN(C)C(=O)Nc1cccc2ccccc12`, which cytotoxicity call is on record?
The cytotoxicity call was “inactive”.

Which cytotoxicity call does the source give for `C=CCC[C@H](Cc1ccc(F)cc1)C(=O)O[C@@H](CNC(=O)[C@@H](CC=C)CC(=O)N[C@@H](CO)Cc1ccccc1)c1ccccc1` here?
Its cytotoxicity call is “inactive”.

Which cytotoxicity call does the source give for `C[C@@H]1CN([C@@H](C)CO)C(=O)c2cc(NC(=O)CCN3CCOCC3)ccc2O[C@H]1CN(C)C(=O)NC1CCCCC1` here?
Its cytotoxicity call is “inactive”.

Which cytotoxicity call does the source give for `Cc1noc(C)c1NC(=O)N(C)C[C@H]1Oc2ccc(NS(=O)(=O)c3ccccc3)cc2CC(=O)N([C@@H](C)CO)C[C@@H]1C` here?
The cytotoxicity call was “inactive”.

With `C[C@@H]1CN([C@@H](C)CO)C(=O)c2cccc(NC(=O)c3ccncc3)c2O[C@H]1CN(C)Cc1ccncc1` as the compound, how does the cytotoxicity call read?
The cytotoxicity call was “inactive”.

`O=C(Cc1ccncc1)NCC[C@H]1CC[C@H](NC(=O)C2CCOCC2)[C@H](CO)O1` was tested. Which cytotoxicity call did it give?
The cytotoxicity call was “inactive”.

`C[C@H]1COC(=O)[C@@H](CC(=O)OC(C)(C)C)CC=CC[C@@H](CC(=O)N[C@@H](CO)Cc2ccccc2)C(=O)N1` was tested. Which cytotoxicity call did it give?
The cytotoxicity call was “inactive”.

For `COC(=O)c1cncn1C`, which cytotoxicity call is on record?
The cytotoxicity call was “inactive”.

With `CCC(CC)C(=O)N[C@@H]1CC(=O)N(C)C1` as the compound, how does the cytotoxicity call read?
The cytotoxicity call was “inactive”.

How did the cytotoxicity call turn out when `C[C@H](CO)N1C[C@H](C)[C@H](CN(C)C(=O)c2ccccc2)OCCCC[C@H](C)Oc2ccc(NS(=O)(=O)c3ccccc3)cc2C1=O` was run?
Its cytotoxicity call is “inactive”.

Which cytotoxicity call does the source give for `NC(=S)c1cnc(-c2ccncc2)nc1N` here?
Its cytotoxicity call is “inactive”.

`COc1ccc(NC(=O)O[C@H]2[C@H](OC(=O)Nc3ccccc3-c3ccccc3)[C@@H](OC(=O)Nc3ccccc3-c3ccccc3)[C@@H](OC)O[C@@H]2COC(=O)NCCCCCC(=O)NO)cc1` was tested. Which cytotoxicity call did it give?
The cytotoxicity call was “inactive”.

`COc1ccc(NC(=O)Nc2ccc3c(c2)C(=O)N([C@H](C)CO)C[C@H](C)[C@@H](CN(C)C(=O)Cc2ccccc2)OCCCC[C@@H](C)O3)cc1` was tested. Which cytotoxicity call did it give?
Its cytotoxicity call is “inactive”.
